Key:
[1] = biological target: T1, biotinylated murine 4-1BB Fc(kih) (murine, UniProt P20334 24-187, biotinylated); assay: SPR (Biacore T200, 25 C): biotinylated murine 4-1BB Fc(kih) on SA chip, construct at 200 nM as first analyte, FAP at 500 nM as second analyte
T1 construct: also called immobilized murine 4-1BB
T1 sequence: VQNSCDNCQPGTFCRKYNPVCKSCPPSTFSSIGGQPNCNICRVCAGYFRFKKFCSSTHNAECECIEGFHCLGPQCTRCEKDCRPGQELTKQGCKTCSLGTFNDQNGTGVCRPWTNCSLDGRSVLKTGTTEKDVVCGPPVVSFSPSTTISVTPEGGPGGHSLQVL
Method: (§1) The capacity of binding simultaneously murine 4-1BB Fc(kih) and human or murine FAP was assessed by surface plasmon resonance (SPR) in the manner as described in WO 2016/075278 A1. All SPR experiments were performed on a Biacore T200 at 25° C. with HBS-EP as running buffer (0.01 M HEPES pH 7.4, 0.15 M NaCl, 3 mM EDTA, 0.005% Surfactant P20, Biacore, Freiburg/Germany). Biotinylated murine 4-1BB Fc(kih) was directly coupled to a flow cell of a streptavidin (SA) sensor chip. Immobilization levels up to 600 resonance units (RU) were used.
(§2) The FAP-targeted mu4-1BBL construct was passed at a concentration range of 200 nM with a flow of 30 μL/minute through the flow cells over 90 seconds and dissociation was set to zero sec. Human or murine FAP was injected as second analyte with a flow of 30 μL/minute through the flow cells over 90 seconds at a concentration of 500 nM. The dissociation was monitored for 120 sec. Bulk refractive index differences were corrected for by subtracting the response obtained in a reference flow cell, where no protein was immobilized.

human FAP = biological target: T2, human FAP (human, UniProt Q12884 27-760); assay: SPR (Biacore T200, 25 C): biotinylated murine 4-1BB Fc(kih) on SA chip, construct at 200 nM as first analyte, human FAP at 500 nM as second analyte
T2 construct: also called Human (hu) FAP
Method: as §1, §2

murine FAP = biological target: T3, murine FAP (mouse, UniProt P97321 27-761); assay: SPR (Biacore T200, 25 C): biotinylated murine 4-1BB Fc(kih) on SA chip, construct at 200 nM as first analyte, murine FAP at 500 nM as second analyte
T3 construct: also called mouse FAP

Measured: binding result

B1: hybrid surrogate FAP-mu4-1BBL (Fc fusion)
heavy 1: RTEPRPALTITTSPNLGTRENNADQVTPVSHIGCPNTTQQGSPVFAKLLAKNQASLSNTTLNWHSQDGAGSSYLSQGLRYEEDKKELVVDSPGLYYVFLELKLSPTFTNTGHKVQGWVSLVLQAKPQVDDFDNLALTVELFPCSMENKLVDRSWSQLLLLKAGHRLSVGLRAYLHGAQDAYRDWELSYPNTTSFGLFLVKPDNPWEGGGGSGGGGSRTEPRPALTITTSPNLGTRENNADQVTPVSHIGCPNTTQQGSPVFAKLLAKNQASLSNTTLNWHSQDGAGSSYLSQGLRYEEDKKELVVDSPGLYYVFLELKLSPTFTNTGHKVQGWVSLVLQAKPQVDDFDNLALTVELFPCSMENKLVDRSWSQLLLLKAGHRLSVGLRAYLHGAQDAYRDWELSYPNTTSFGLFLVKPDNPWEGGGGSGGGGSRTVAAPSVFIFPPSDRKLKSGTASVVCLLNNFYPREAKVQWKVDNALQSGNSQESVTEQDSKDSTYSLSSTLTLSKADYEKHKVYACEVTHQGLSSPVTKSFNRGE[no letters for human IgG1 Fc with changes]
light 1: RTEPRPALTITTSPNLGTRENNADQVTPVSHIGCPNTTQQGSPVFAKLLAKNQASLSNTTLNWHSQDGAGSSYLSQGLRYEEDKKELVVDSPGLYYVFLELKLSPTFTNTGHKVQGWVSLVLQAKPQVDDFDNLALTVELFPCSMENKLVDRSWSQLLLLKAGHRLSVGLRAYLHGAQDAYRDWELSYPNTTSFGLFLVKPDNPWEGGGGSGGGGSASTKGPSVFPLAPSSKSTSGGTAALGCLVEDYFPEPVTVSWNSGALTSGVHTFPAVLQSSGLYSLSSVVTVPSSSLGTQTYICNVNHKPSNTKVDEKVEPKSC
heavy 2: EVQLLESGGGLVQPGGSLRLSCAASGFTFSSYAMSWVRQAPGKGLEWVSAIIGSGASTYYADSVKGRFTISRDNSKNTLYLQMNSLRAEDTAVYYCAKGWFGGFNYWGQGTLVTVSSASTKGPSVFPLAPSSKSTSGGTAALGCLVKDYFPEPVTVSWNSGALTSGVHTFPAVLQSSGLYSLSSVVTVPSSSLGTQTYICNVNHKPSNTKVDKKVEPKSCDKTHTCPPCPAPEAAGGPSVFLFPPKPKDTLMISRTPEVTCVVVDVSHEDPEVKFNWYVDGVEVHNAKTKPREEQYNSTYRVVSVLTVLHQDWLNGKEYKCKVSNKALGAPIEKTISKAKGQPREPQVCTLPPSRDELTKNQVSLSCAVKGFYPSDIAVEWESNGQPENNYKTTPPVLDSDGSFFLVSKLTVDKSRWQQGNVFSCSVMHEALHNHYTQKSLSLSPGK
light 2: EIVLTQSPGTLSLSPGERATLSCRASQSVTSSYLAWYQQKPGQAPRLLINVGSRRATGIPDRFSGSGSGTDFTLTISRLEPEDFAVYYCQQGIMLPPTFGQGTKVEIKRTVAAPSVFIFPPSDEQLKSGTASVVCLLNNFYPREAKVQWKVDNALQSGNSQESVTEQDSKDSTYSLSSTLTLSKADYEKHKVYACEVTHQGLSSPVTKSFNRGEC
notes: also called FAP-targeted mu4-1BBL construct; hybrid FAP-mu4-1BBL
binds: all assays above
